From PubChem BioAssay AID445 (National Center for Advancing Translational Sciences (NCATS), 2006)
The whole screen tested about 110,000 compounds, of which about 40 (0.04%) were called active. Inconclusive results, whose numbers are uncertain, are shown with a selection of clear calls. Calls follow the shape of the dose curve; as a rule, active = well fitted curve in the direction sought with a large enough effect in the signal ratio (not every such curve was filed as active); inconclusive = small, poorly fitted or top-dose-only effect, or a change in a side signal; inactive = flat fitted curve, though single readings scatter; the % refers to the signal ratio. Potencies of inconclusive entries are doubtful fits and often do not repeat.

experiment: IkB Signaling; settings: ABC-DLBCL IkBa-CBG/CBR dual luciferase ratio (green luciferase fused to IkBa over red control in OCI-Ly3 lymphoma cells), 4 h; IkBa stabilization activation: at 57.1 µM (top of the series), scaled: untreated 0%, proteasome inhibitor 100% unless noted;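 as to IkBa stabilization activation: 0% = basal untreated cells and 100% = reference inhibitor full response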
Summary of the method: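 Luminescence ratio of IκBα-fused green versus native red beetle luciferase in OCI-Ly3 cells, 4 h post-doxycycline with compound; red signal alone, scaled from basal (0%) to zero light (-100%), flagged nonspecific or cytotoxic effects.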
Potency is read from the fitted curve at half-maximal effect.

SMILES | IkBa stabilization activation | Potency
COC(=O)c1ccc(NC(=O)c2ccccc2NS(C)(=O)=O)cc1 | inconclusive: 12.9% [signal inhibitor] | 
O=C(CN1C(=O)CCc2cc(S(=O)(=O)N3CCOCC3)ccc21)Nc1cccc(C(F)(F)F)c1 | inconclusive: 2.47% [signal inhibitor] | 
CCOc1cccc(C(=O)Nc2cc(-c3ccc(C)cc3)no2)c1 | inconclusive: 4.24% [signal inhibitor] | 
CCCCCCOc1ccc(C2C(=O)N(C3CCCCC3)CC(=O)N2CCCC)cc1 (stereo not drawn) | inconclusive: 1.92% [signal inhibitor] | 
COc1ccc(NC(=O)CNC(=O)Cn2c(C)cc3ccccc3c2=O)cc1OC | inconclusive: 2.85% [signal inhibitor] | 
O=C(Nc1sc2c(c1C(=O)N1CCCCC1)CCCC2)c1ccccc1Cl | inconclusive: 5.98% [signal inhibitor] | 
CCOC(=O)c1c(NC(=O)c2cccs2)sc2c1CCN(C(=O)OCC)C2 | inconclusive: 1.92% [signal inhibitor] | 
O=C1c2ccccc2C(=O)N1SC1CCCCC1 | inconclusive: 3.36% [signal inhibitor] | 
CCCCN(CCCC)C1=C(C(=O)c2ccccc2)N(C)S(=O)(=O)c2ccccc21 | inconclusive: -1.22% [signal inhibitor] | 
Cc1ccccc1CNC(=O)CN(c1cccc(C)c1C)S(C)(=O)=O | inactive: 1.51% | 
COC(=O)c1cc(-c2ccc(OC)c(OC)c2)on1 | inactive: -0.452% | 
O=C(NCc1ccccc1)c1c[nH]c2ccc(S(=O)(=O)Nc3ccc4c(c3)OCCO4)cc2c1=O | inconclusive: 6.82% [signal inhibitor] | 
COc1ccccc1NC(=O)CSC1=Nc2ccccc2C2=NC(CCC(=O)NCc3cccs3)C(=O)N12 (stereo not drawn) | inconclusive: 1.84% [signal inhibitor] | 
O=C(Nc1ccc(N2CCN(C(=O)c3ccco3)CC2)c(Cl)c1)c1c(F)c(F)c(F)c(F)c1F | inconclusive: 1.42% [signal inhibitor] | 
CCCc1cc(-c2ccc(O)c(OCC)c2)c(C#N)c(N)n1 | inactive: 3.1% | 
CCOc1cccc(C(=O)N(Cc2ccc(CC)cc2)C2CCS(=O)(=O)C2)c1 (stereo not drawn) | inactive: -3.05% | 
COc1ccc(NC(=O)c2ccc(CN3CCN(c4ccccc4)CC3)cc2)cc1OC | inconclusive: 2.27% [signal inhibitor] | 
COC(=O)c1cc(-c2c[nH]c3ccccc23)n[nH]1 | inactive: 1.38% | 
COc1cccc(Cn2c(=O)cnc3cnc(Nc4cccc(OC)c4)nc32)c1 | inactive: -3.06% [at 11.4 µM, scaled: untreated 0%, proteasome inhibitor 100%] | 
Ic1ccc2c(c1)N(c1ccccc1)c1cc(Nc3ccc4nc5ccc(I)cc5[n+](-c5ccccc5)c4c3)ccc1N2 | inactive: 1.67% [at 11.4 µM, scaled: untreated 0%, proteasome inhibitor 100%] | 
Clc1ccc(C(c2ccc(Cl)cc2)n2cc[n+](C[C@@H](OCc3ccc(Cl)cc3Cl)c3ccc(Cl)cc3Cl)c2)cc1 |  | inconclusive: 39.8 µM [signal inhibitor, single point]
CCC(=O)Nc1ccc(NC(=O)c2ccccc2Cl)nc1 |  | inconclusive: 25.1 µM [signal inhibitor, partial curve]

SMILES | IkBa stabilization activation | Potency
c1ccc2c(c1)oc1c(NCCN3CCOCC3)ncnc12 | inactive: -2.99% | 
CC1(C)Cc2c(sc3c2c(=N)n(Cc2ccco2)c(=O)n3Cc2ccc(F)cc2)CO1 | inactive: -0.887% | 
COc1ccccc1C(=O)N1CCN(Cc2cc(=O)oc3cc(C)ccc23)CC1 | inactive: 1.33% | 
COc1ccc(-c2nc3ccc(NS(=O)(=O)c4ccc(Cl)cc4)cc3o2)cc1 | inconclusive: -1.19% [signal inhibitor] | 
Cc1ccc(CNC(=O)c2ccc(CSCc3ccccc3C)o2)cc1 | inconclusive: 1.67% [signal inhibitor] | 
Cc1c(/N=C/c2ccco2)n(Cc2ccccc2)c2ccccc12 | inactive: 2.03% | 
CCCCOC(=O)n1c(SCC(=O)N(CC)CC)nc2ccccc21 | inconclusive: 13.1% [signal inhibitor] | 
O=C(CSc1cn(CC(=O)N2CCOCC2)c2ccccc12)Nc1ccccc1F | inconclusive: 4.9% [signal inhibitor] | 
Cc1cc2ccccc2n1CCNC(=O)c1cccc(Br)c1 | inconclusive: 3.98% [signal inhibitor] | 
Cc1ccc(S(=O)(=O)Nc2ccc3c(c2)CCCN3C(=O)c2cccs2)cc1 | inconclusive: 4.33% [signal inhibitor] | 
CCOC(=O)c1sc(NC(=O)CSc2nnc(C)s2)c(C(=O)OCC)c1C | inactive: 2.17% | 
COc1ccc(OC)c(CCNC(=O)CCCn2c(=O)c3cccn3c3ccccc32)c1 | inconclusive: 4.37% [signal inhibitor] | 
COc1ccc2oc(=O)cc(CN3CCN(Cc4ccccc4)CC3)c2c1 | inconclusive: -0.195% [signal inhibitor] | 
Cc1cccc(N2CCN(C(=O)c3cc4c(C)nc5ccccc5c4o3)CC2)c1C | inconclusive: -4.55% [signal inhibitor] | 
CCN(C(=O)c1cc2c(s1)-c1c(C)cccc1OC2)c1ccccc1F |  | inconclusive: 3.16 µM [signal inhibitor, partial curve]
COc1ccc(CC(=O)N2CCc3cc(OC)c(OC)cc3C2COc2ccc(OC)cc2)cc1 (stereo not drawn) | inconclusive: 1.23% [signal inhibitor] | 
Cc1ccc2c(c1)-c1cc(C)nn1C(c1sccc1C)N2 (stereo not drawn) | inconclusive: 0.837% [signal inhibitor] | 
C[C@@](N)(Cc1c[nH]c2ccccc12)C(=O)O | inactive: -0.877% [at 11.4 µM, scaled: untreated 0%, proteasome inhibitor 100%] | 
COc1cccc(NC(=O)c2ccccc2-c2nc(-c3cccc(C)c3)no2)c1 | inconclusive: 4.14% [signal inhibitor] | 
Cc1ccc(C)c(NC(=O)c2cnn(-c3cccc(F)c3)c2C2CCN(C(=O)OC(C)(C)C)CC2)c1 | inconclusive: -2.29% [signal inhibitor] | 
O=C1CC(c2nc3ccccc3[nH]2)CN1c1cccc(Cl)c1 (stereo not drawn) | inconclusive: 4.39% [signal inhibitor] | 
